From publication PMC4316160
These are yes or no findings as the source states them, for the method shown. Binding seen in cells or lysates may run through a third protein. Some results given as binding are weak or reduced against the parent protein; the word gives no strength.

Protein sequences, listed by entry. Tags and fused reporters are not part of them. Lines headed by an entry give the natural chain unless they say otherwise; changes in a name come on top.
UniProt P62821: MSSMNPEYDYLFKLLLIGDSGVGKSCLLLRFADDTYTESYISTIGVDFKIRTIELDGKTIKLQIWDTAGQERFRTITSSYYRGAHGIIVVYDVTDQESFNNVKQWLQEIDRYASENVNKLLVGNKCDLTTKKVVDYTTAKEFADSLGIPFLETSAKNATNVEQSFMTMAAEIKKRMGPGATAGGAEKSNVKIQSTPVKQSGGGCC

Experiments:
[1] = molecular target: endogenous Rab1A (mouse (endogenous in melan-a)) (UniProt P62821); test: co-IP; endogenous proteins; Protein-A Sepharose beads with anti-Rab1A rabbit polyclonal antibody or control rabbit IgG, incubated with melan-a cell lysates overnight at 4°C; immunoblotting
FLAG-Rab1A(Q70L) (mouse) = FLAG-Rab1A(Q70L) (mouse) (UniProt P62821); test: co-IP; anti-FLAG agarose beads coupled with FLAG-Arl8b(Q75L) or FLAG-Rab1A(Q70L) incubated with COS-7 cell lysates containing T7-SKIP-RUN or T7-SKIP(Δ177–186)-RUN; immunoblotting; only the target purified

binding [1] | binding (FLAG-Rab1A(Q70L) (mouse)) | Binder
binds |  | endogenous SKIP (protein, UniProt Q80TQ5 1-1018) MEPREVKDRILENISLSVKKLQSYFAACEDETPAIRNHDKVLQRLCEHLDHALLYGLQDLSSGYWVLVVHFTRREAIRQIEVLQHVATNLGRSRAWLYLALNENSLESYLRLFQENLGLLQKYYVRNALVCSHDHLTLFLTLVSGLEFIRFDLDLDAPYLDLAPYMPDYYKPQYLLDFEDRLPSSVHGSDSLSLNSFNSVTSTNLEWDDSAIAPSSEDGDLTDTISGPRSTASDLTSSKTSTKSPTQRHNPFNEEQAETASSDTTPVHTTSQEKEEAQAPDQPDACTELEVIRVTKKKKIGKKKKTKLDEDASPLHPTSSQQKCGQQGEGDGLVGTPGLARDPSDTVLASPQEQGEGLSSTAGSSELSELSQMGLLIPEMKDTSMECLGQPLSKVIDKLHGQLDPSTWCSHADPPEQSFRAGSPGEAPEKPPFCDFSEGLPAPMDFYRFTVESPSTVAPGGGHHDPPGPSQPLHVPGSPAAALQEEEEGGRGEGQTSQPVEDRQGEEIQEPEPQEPDSQLPLVSQEPLVSQEPVPEPVSQPEPGTHEALCKLKRDQPSPCLSSAEDSGVEEGQGSPSEMTHPSEFRVDNNHLLLLMIHVFRENEEQLFKMIRMSTGHMEGNLQLLYVLLTDCYVYLLRKGATEKPYLVEEAVSYNELDYVSVGLDQQTVKLVCTNRRKQFLLDTADVALAELFLASLKSAMIKGCREPPYPSILTDATMEKLALAKFVAQESKCEASAVTVHFYGLVHWEDPMEEALGPVPCQCSPAEGTITKEGMLHYKASTSYLGKEHWKACFVVLSNGILYQYPDRTDVIPLLSVNMGGEQCGGCRRSNTTDRPHAFQVILADRPCLELSADSEAEMADWMQHLCQAVSKGVIPQGIAPSPCIPCCLVITEDRLFTCHEDCQTSFFRSLGTARLADITAISTELGKEYCVLEFSQDSPQLLQPWVIYLSCTSELDRFLTALSSGWKAIYQVDLPHKAIHEASIKQKFEDALSLIHSAWQRSDSLCRGRASRDPWC
no binding |  | endogenous Arl8b (protein, UniProt Q9CQW2 1-186) MLALISRLLDWFRSLFWKEEMELTLVGLQYSGKTTFVNVIASGQFSEDMIPTVGFNMRKVTKGNVTIKIWDIGGQPRFRSMWERYCRGVNAIVYMIDAADREKIEASRNELHNLLDKPQLQGIPVLVLGNKRDLPNALDEKQLIEKMNLSAIQDREICCYSISCKEKDNIDITLQWLIQHSKSRRS

Further lines, the binder ahead of its results:

Binder | binding [1] | binding (FLAG-Rab1A(Q70L) (mouse))
T7-SKIP(Δ177–186)-RUN (domain or fragment, UniProt Q8IWE5) MEPGEVKDRILENISLSVKKLQSYFAACEDEIPAIRNHDKVLQRLCEHLDHALLYGLQDLSSGYWVLVVHFTRREAIKQIEVLQHVATNLGRSRAWLYLALNENSLESYLRLFQENLGLLHKYYVKNALVCSHDHLTLFLTLVSGLEFIRFELDLDAPYLDLAPYMPDYYKPQYLLHGSDSLSLNSFNSVTSTNLEWDDSAIAPSSEDYDFGDVFPAVPSVPSTDWEDGDLTDTVSGPRSTASDLTSSKASTRSPTQRQNPFNEEPAETVSS |  | no binding
T7-SKIP-RUN (domain or fragment, UniProt Q8IWE5 1-282) MEPGEVKDRILENISLSVKKLQSYFAACEDEIPAIRNHDKVLQRLCEHLDHALLYGLQDLSSGYWVLVVHFTRREAIKQIEVLQHVATNLGRSRAWLYLALNENSLESYLRLFQENLGLLHKYYVKNALVCSHDHLTLFLTLVSGLEFIRFELDLDAPYLDLAPYMPDYYKPQYLLDFEDRLPSSVHGSDSLSLNSFNSVTSTNLEWDDSAIAPSSEDYDFGDVFPAVPSVPSTDWEDGDLTDTVSGPRSTASDLTSSKASTRSPTQRQNPFNEEPAETVSS |  | binds
